# Measurements as given in publication PMC9911399, “Two distinct binding modes provide the RNA-binding protein RbFox with extraordinary sequence specificity”.
# Residue numbers refer to the chain shown, from its start. This is one part of the list.
# T1: RBFOX1 RRM RbFoxmut (Fox-RRM*) (Homo sapiens, UniProt Q9NWB1 109-208, R118D;E147R;N151S;E152T)
# T1 sequence: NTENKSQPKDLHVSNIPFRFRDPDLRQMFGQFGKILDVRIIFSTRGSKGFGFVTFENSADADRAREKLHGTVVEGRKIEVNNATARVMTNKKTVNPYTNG
# B1: UCUGUGG (DNA:RNA)
# RNA: GGGAGACCGGAAUUCAGAUUGUCCUCUGUGGUUAAAUCCCGUCGUAGCCACCA
# DNA 1: CAATCTGAATTCCGGTCTCCC
# DNA 2: TGGTGGCTACGACGGGATT
# B2: GCAAUAG (DNA:RNA)
# RNA: B1 RNA with U25G, U27A, G28A, G30A
# DNA 1: CAATCTGAATTCCGGTCTCCC
# DNA 2: TGGTGGCTACGACGGGATT
# B3: AUAUUGG (DNA:RNA)
# RNA: B1 RNA with U25A, C26U, U27A, G28U
# DNA 1: CAATCTGAATTCCGGTCTCCC
# DNA 2: TGGTGGCTACGACGGGATT
# B4: UUCUCAU (DNA:RNA)
# RNA: B1 RNA with C26U, U27C, G28U, U29C, G30A, G31U
# DNA 1: CAATCTGAATTCCGGTCTCCC
# DNA 2: TGGTGGCTACGACGGGATT
# B5: CACAUAG (DNA:RNA)
# RNA: B1 RNA with U25C, C26A, U27C, G28A, G30A
# DNA 1: CAATCTGAATTCCGGTCTCCC
# DNA 2: TGGTGGCTACGACGGGATT
# B6: UAAAGCC (DNA:RNA)
# RNA: B1 RNA with C26A, U27A, G28A, U29G, G30C, G31C
# DNA 1: CAATCTGAATTCCGGTCTCCC
# DNA 2: TGGTGGCTACGACGGGATT
# B7: GAGUUAG (DNA:RNA)
# RNA: B1 RNA with U25G, C26A, U27G, G28U, G30A
# DNA 1: CAATCTGAATTCCGGTCTCCC
# DNA 2: TGGTGGCTACGACGGGATT
# B8: GGAUGGC (DNA:RNA)
# RNA: B1 RNA with U25G, C26G, U27A, G28U, U29G, G31C
# DNA 1: CAATCTGAATTCCGGTCTCCC
# DNA 2: TGGTGGCTACGACGGGATT
# B9: UUAUGAC (DNA:RNA)
# RNA: B1 RNA with C26U, U27A, G28U, U29G, G30A, G31C
# DNA 1: CAATCTGAATTCCGGTCTCCC
# DNA 2: TGGTGGCTACGACGGGATT
# B10: GAAACAG (DNA:RNA)
# RNA: B1 RNA with U25G, C26A, U27A, G28A, U29C, G30A
# DNA 1: CAATCTGAATTCCGGTCTCCC
# DNA 2: TGGTGGCTACGACGGGATT
# B11: GUAGCGA (DNA:RNA)
# RNA: B1 RNA with U25G, C26U, U27A, U29C, G31A
# DNA 1: CAATCTGAATTCCGGTCTCCC
# DNA 2: TGGTGGCTACGACGGGATT
# B12: ACCUAAC (DNA:RNA)
# RNA: B1 RNA with U25A, U27C, G28U, U29A, G30A, G31C
# DNA 1: CAATCTGAATTCCGGTCTCCC
# DNA 2: TGGTGGCTACGACGGGATT
# B13: UGUACGC (DNA:RNA)
# RNA: B1 RNA with C26G, G28A, U29C, G31C
# DNA 1: CAATCTGAATTCCGGTCTCCC
# DNA 2: TGGTGGCTACGACGGGATT
# B14: ACUAACU (DNA:RNA)
# RNA: B1 RNA with U25A, G28A, U29A, G30C, G31U
# DNA 1: CAATCTGAATTCCGGTCTCCC
# DNA 2: TGGTGGCTACGACGGGATT
# B15: AUCUAGG (DNA:RNA)
# RNA: B1 RNA with U25A, C26U, U27C, G28U, U29A
# DNA 1: CAATCTGAATTCCGGTCTCCC
# DNA 2: TGGTGGCTACGACGGGATT
# B16: UCUCUGC (DNA:RNA)
# RNA: B1 RNA with G28C, G31C
# DNA 1: CAATCTGAATTCCGGTCTCCC
# DNA 2: TGGTGGCTACGACGGGATT
# B17: UAUUCAA (DNA:RNA)
# RNA: B1 RNA with C26A, G28U, U29C, G30A, G31A
# DNA 1: CAATCTGAATTCCGGTCTCCC
# DNA 2: TGGTGGCTACGACGGGATT
# B18: CAUCUAU (DNA:RNA)
# RNA: B1 RNA with U25C, C26A, G28C, G30A, G31U
# DNA 1: CAATCTGAATTCCGGTCTCCC
# DNA 2: TGGTGGCTACGACGGGATT
# B19: AGGUCCC (DNA:RNA)
# RNA: GGGAGACCGGAAUUCAGAUUGUCCAGGUCCCUUAAAUCCCGUCGUAGCCACCA
# DNA 1: CAATCTGAATTCCGGTCTCCC
# DNA 2: TGGTGGCTACGACGGGATT
# B20: CUGAUCA (DNA:RNA)
# RNA: B19 RNA with A25C, G26U, U28A, C29U, C31A
# DNA 1: CAATCTGAATTCCGGTCTCCC
# DNA 2: TGGTGGCTACGACGGGATT
# Molecular target: T1, RBFOX1 RRM RbFoxmut (Fox-RRM*)
# Assay: EMSA; HiTS-Eq, 1 nM pool, 10 min; buffer printed only for the single-RNA assays: 10 mM Tris pH 7.5, 150 mM NaCl, 3.4 mM EDTA, 0.001% NP-40, 30 C
# Settings: tags: His6 N-terminal (pET28a); label: 5' 32P
# Summary of the method: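 Purified RbFox RRM, wild type or mutant, was incubated for 10 min in 50 µL with 1 nM of a 5′-radiolabelled RNA pool carrying 7 randomized nucleotides, whose flanks were annealed to DNA oligonucleotides, over a series of increasing protein concentrations. Unbound RNA was resolved on 8% native PAGE, cut out, reverse-transcribed, barcoded by PCR and sequenced on an Illumina HiSeq 2500. Relative association constants were derived from changes in read counts for each RNA species versus the control reaction and normalised to the cognate motif.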
row,Binder,binding signal
1,B1,0.0928 KA relative to UGCAUGU
2,B2,0.0796 KA relative to UGCAUGU
3,B3,0.107 KA relative to UGCAUGU
4,B4,0.108 KA relative to UGCAUGU
5,B5,0.12 KA relative to UGCAUGU
6,B6,0.0638 KA relative to UGCAUGU
7,B7,0.111 KA relative to UGCAUGU
8,B8,0.156 KA relative to UGCAUGU
9,B9,0.0826 KA relative to UGCAUGU
10,B10,0.0918 KA relative to UGCAUGU
11,B11,0.075 KA relative to UGCAUGU
12,B12,0.0613 KA relative to UGCAUGU
13,B13,0.101 KA relative to UGCAUGU
14,B14,0.105 KA relative to UGCAUGU
15,B15,0.111 KA relative to UGCAUGU
16,B16,0.0999 KA relative to UGCAUGU
17,B17,0.0869 KA relative to UGCAUGU
18,B18,0.12 KA relative to UGCAUGU
19,B19,0.0699 KA relative to UGCAUGU
20,B20,0.066 KA relative to UGCAUGU
